Experiment [1] deals with T1, MID1(136–170aa), first PPR motif of MID1, yeast two-hybrid fusion (Arabidopsis thaliana) (UniProt Q9LNC0).
T1 sequence: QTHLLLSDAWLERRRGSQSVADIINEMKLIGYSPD
Briefly: two-hybrid; bait vector pGBKT7 (BD) and prey vector pGADT7 (AD), proteins without the N-terminal mitochondrial targeting signals; growth on SD/-Ade-His-Trp-Leu; 10 mM 3-AT added for some pairs against auto-activation.

The target of experiment [2] is T2, WTF9-GFP, full-length WHAT’S THIS FACTOR 9 with C-terminal GFP (Arabidopsis thaliana) (UniProt Q9ZUZ6).
T2 sequence: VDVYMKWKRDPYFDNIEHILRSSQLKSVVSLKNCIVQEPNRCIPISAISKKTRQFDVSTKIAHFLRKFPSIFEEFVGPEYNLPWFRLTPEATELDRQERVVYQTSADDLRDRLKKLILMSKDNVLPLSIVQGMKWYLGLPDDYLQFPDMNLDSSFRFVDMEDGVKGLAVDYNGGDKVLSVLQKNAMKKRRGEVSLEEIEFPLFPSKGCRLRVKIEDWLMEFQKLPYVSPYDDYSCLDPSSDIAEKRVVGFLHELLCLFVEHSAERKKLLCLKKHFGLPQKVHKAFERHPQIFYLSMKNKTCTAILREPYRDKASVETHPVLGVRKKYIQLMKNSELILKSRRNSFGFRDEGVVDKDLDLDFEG
Briefly: co-IP; GFP-tagged bait and 3×Flag-tagged prey transiently co-expressed in Arabidopsis protoplasts; GFP Trap beads overnight at 4 °C; 50 mM Tris-Cl pH 7.5, 150 mM NaCl, 1 mM EDTA, 0.5% NP40 (wash 1% NP40), 1 mM DTT; blots with anti-GFP and anti-Flag.

Experiment [3] has as its target T3, CLuc-MID1 (Arabidopsis thaliana) (UniProt Q9LNC0).
T3 sequence: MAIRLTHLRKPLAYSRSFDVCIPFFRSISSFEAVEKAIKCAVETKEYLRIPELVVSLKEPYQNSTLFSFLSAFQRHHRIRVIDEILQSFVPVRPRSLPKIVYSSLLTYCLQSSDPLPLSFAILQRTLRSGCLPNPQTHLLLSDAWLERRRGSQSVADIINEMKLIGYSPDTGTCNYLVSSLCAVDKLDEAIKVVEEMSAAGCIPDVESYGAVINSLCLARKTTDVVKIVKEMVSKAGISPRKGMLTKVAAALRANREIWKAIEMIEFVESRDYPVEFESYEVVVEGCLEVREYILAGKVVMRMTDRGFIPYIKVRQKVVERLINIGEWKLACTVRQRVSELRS
Briefly: split reporter; firefly luciferase complementation imaging; NLuc and CLuc fusions co-infiltrated into N. benthamiana leaves, 22 °C for 72 h, CCD imaging.

In experiment [4] the target is T4, MID1(77–240aa), yeast two-hybrid fusion (Arabidopsis thaliana) (UniProt Q9LNC0).
T4 sequence: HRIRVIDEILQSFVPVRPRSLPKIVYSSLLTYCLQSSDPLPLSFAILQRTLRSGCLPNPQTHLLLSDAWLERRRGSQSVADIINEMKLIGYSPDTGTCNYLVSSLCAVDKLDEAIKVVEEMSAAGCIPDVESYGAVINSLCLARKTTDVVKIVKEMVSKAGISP
Description: two-hybrid; bait vector pGBKT7 (BD) and prey vector pGADT7 (AD), proteins without the N-terminal mitochondrial targeting signals; growth on SD/-Ade-His-Trp-Leu; 10 mM 3-AT added for some pairs against auto-activation.

The target of experiment [5] is T5, MID1(77–276aa), yeast two-hybrid fusion (Arabidopsis thaliana) (UniProt Q9LNC0).
T5 sequence: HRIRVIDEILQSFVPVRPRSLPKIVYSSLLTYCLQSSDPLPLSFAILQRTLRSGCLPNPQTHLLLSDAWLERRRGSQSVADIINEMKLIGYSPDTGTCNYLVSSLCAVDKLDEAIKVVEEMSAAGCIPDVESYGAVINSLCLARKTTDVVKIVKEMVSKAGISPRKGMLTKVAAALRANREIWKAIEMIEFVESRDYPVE
Described as above.

Experiment [6] addresses T6, MID1(77–205aa), yeast two-hybrid fusion (Arabidopsis thaliana) (UniProt Q9LNC0).
T6 sequence: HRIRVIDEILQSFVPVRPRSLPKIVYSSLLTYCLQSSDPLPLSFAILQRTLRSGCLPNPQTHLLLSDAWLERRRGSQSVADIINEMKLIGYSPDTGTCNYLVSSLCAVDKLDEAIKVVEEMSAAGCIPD
The experiment is described as above.

Experiment [7] addresses T7, MID1(77–170aa), yeast two-hybrid fusion (Arabidopsis thaliana) (UniProt Q9LNC0).
T7 sequence: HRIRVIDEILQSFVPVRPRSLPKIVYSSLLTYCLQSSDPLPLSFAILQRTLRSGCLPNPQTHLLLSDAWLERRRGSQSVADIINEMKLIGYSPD
The experiment is described as above.

The target of experiment [8] is T8, MID1(77–135)BD, N-terminus of MID1 only (Arabidopsis thaliana) (UniProt Q9LNC0).
T8 sequence: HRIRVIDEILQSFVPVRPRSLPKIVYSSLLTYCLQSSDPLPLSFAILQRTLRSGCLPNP
Described as above.

Experiment [9] has as its target MID1(77–343aa), MITOCHONDRION-MEDIATED GROWTH DEFECT 1 without the mitochondrial targeting signal, yeast two-hybrid fusion (Arabidopsis thaliana) (UniProt Q9LNC0). The experiment is described as above.
Experiment [10] has as its target T9, MID1(77–311aa), yeast two-hybrid fusion (Arabidopsis thaliana) (UniProt Q9LNC0).
T9 sequence: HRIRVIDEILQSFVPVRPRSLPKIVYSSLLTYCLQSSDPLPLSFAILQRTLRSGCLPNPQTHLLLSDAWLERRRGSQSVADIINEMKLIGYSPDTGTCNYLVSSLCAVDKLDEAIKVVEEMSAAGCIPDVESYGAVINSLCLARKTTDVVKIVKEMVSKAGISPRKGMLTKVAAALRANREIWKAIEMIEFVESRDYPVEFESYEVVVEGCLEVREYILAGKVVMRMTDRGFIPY
The experiment is described as above.

No constants are given. Whether binding was seen depends on the method and setting. For some of these results: In cells and extracts the contact can be indirect. Tags and fused reporters may be left off the sequences shown. Some results given as binding are weak or reduced against the parent protein; the word gives no strength.

B1: MID1(77–170aa), yeast two-hybrid fusion (domain or fragment, UniProt Q9LNC0 77-170)
chain: HRIRVIDEILQSFVPVRPRSLPKIVYSSLLTYCLQSSDPLPLSFAILQRTLRSGCLPNPQTHLLLSDAWLERRRGSQSVADIINEMKLIGYSPD
For the molecule B1, the binding entry in experiment [1] is given as “binds”.

B2: ODB1-3×Flag, full-length O… DNA-BINDING PROTEIN 1 with C-terminal 3×Flag (protein, UniProt Q9FVV7 38-176)
chain: STETENDVPTSGISRPLAEILKELNKKVPDSVIRTRVEDGCSIKYIPWHIVNRIMNMHAPEWSGEVRSVTYSPDGNTVTVAYRVTLYGTDAEIFRESTGTTSVDDKGYGDAVQKAEAMAFRRACARFGLGLHLYHEDAL
As to B2, the binding result in experiment [2] is given as “no binding”.

B3: MID1(77–205aa), yeast two-hybrid fusion (domain or fragment, UniProt Q9LNC0 77-205)
chain: HRIRVIDEILQSFVPVRPRSLPKIVYSSLLTYCLQSSDPLPLSFAILQRTLRSGCLPNPQTHLLLSDAWLERRRGSQSVADIINEMKLIGYSPDTGTCNYLVSSLCAVDKLDEAIKVVEEMSAAGCIPD
In the case of B3, the binding entry in [1] was “binds”.

B4: MID1(77–276aa), yeast two-hybrid fusion (domain or fragment, UniProt Q9LNC0 77-276)
chain: HRIRVIDEILQSFVPVRPRSLPKIVYSSLLTYCLQSSDPLPLSFAILQRTLRSGCLPNPQTHLLLSDAWLERRRGSQSVADIINEMKLIGYSPDTGTCNYLVSSLCAVDKLDEAIKVVEEMSAAGCIPDVESYGAVINSLCLARKTTDVVKIVKEMVSKAGISPRKGMLTKVAAALRANREIWKAIEMIEFVESRDYPVE
Regarding B4, the binding result in experiment [1] is reported as “binds”.

B5: MID1(136–170aa), first PPR motif of MID1, yeast two-hybrid fusion (domain or fragment, UniProt Q9LNC0 136-170)
chain: QTHLLLSDAWLERRRGSQSVADIINEMKLIGYSPD
For the molecule B5, the binding result in experiment [1] was “no binding”.

B6: MID1(77–240aa), yeast two-hybrid fusion (domain or fragment, UniProt Q9LNC0 77-240)
chain: HRIRVIDEILQSFVPVRPRSLPKIVYSSLLTYCLQSSDPLPLSFAILQRTLRSGCLPNPQTHLLLSDAWLERRRGSQSVADIINEMKLIGYSPDTGTCNYLVSSLCAVDKLDEAIKVVEEMSAAGCIPDVESYGAVINSLCLARKTTDVVKIVKEMVSKAGISP
In the case of B6, the binding entry in experiment [1] was “binds”.

B7: MID1(77–311aa), yeast two-hybrid fusion (domain or fragment, UniProt Q9LNC0 77-311)
chain: HRIRVIDEILQSFVPVRPRSLPKIVYSSLLTYCLQSSDPLPLSFAILQRTLRSGCLPNPQTHLLLSDAWLERRRGSQSVADIINEMKLIGYSPDTGTCNYLVSSLCAVDKLDEAIKVVEEMSAAGCIPDVESYGAVINSLCLARKTTDVVKIVKEMVSKAGISPRKGMLTKVAAALRANREIWKAIEMIEFVESRDYPVEFESYEVVVEGCLEVREYILAGKVVMRMTDRGFIPY
B7: the binding result in [1] was “binds”.

B8: WTF9-NLuc (protein, UniProt Q9ZUZ6 25-387)
chain: VDVYMKWKRDPYFDNIEHILRSSQLKSVVSLKNCIVQEPNRCIPISAISKKTRQFDVSTKIAHFLRKFPSIFEEFVGPEYNLPWFRLTPEATELDRQERVVYQTSADDLRDRLKKLILMSKDNVLPLSIVQGMKWYLGLPDDYLQFPDMNLDSSFRFVDMEDGVKGLAVDYNGGDKVLSVLQKNAMKKRRGEVSLEEIEFPLFPSKGCRLRVKIEDWLMEFQKLPYVSPYDDYSCLDPSSDIAEKRVVGFLHELLCLFVEHSAERKKLLCLKKHFGLPQKVHKAFERHPQIFYLSMKNKTCTAILREPYRDKASVETHPVLGVRKKYIQLMKNSELILKSRRNSFGFRDEGVVDKDLDLDFEG
In the case of B8, the binding entry in experiment [3] is given as “no binding”.

B9: MID1(77–343aa), MITOCHONDRION-MEDIATED GROWTH DEFECT 1 without the mitochondrial targeting signal, yeast two-hybrid fusion (domain or fragment, UniProt Q9LNC0 77-343)
chain: HRIRVIDEILQSFVPVRPRSLPKIVYSSLLTYCLQSSDPLPLSFAILQRTLRSGCLPNPQTHLLLSDAWLERRRGSQSVADIINEMKLIGYSPDTGTCNYLVSSLCAVDKLDEAIKVVEEMSAAGCIPDVESYGAVINSLCLARKTTDVVKIVKEMVSKAGISPRKGMLTKVAAALRANREIWKAIEMIEFVESRDYPVEFESYEVVVEGCLEVREYILAGKVVMRMTDRGFIPYIKVRQKVVERLINIGEWKLACTVRQRVSELRS
In the case of B9, the binding result in experiment [4] is listed as “binds”; in experiment [1], “binds”; in experiment [5], “binds”; in experiment [6], “binds”; in experiment [7] it was “binds”; in experiment [8], “no binding”. Also, the binding result in experiment [9] and in experiment [10] was “binds” throughout.

These data come from paper PMC7005036.
